Patent US20150250167A1, “COMPOSITION FOR NOXIOUS ORGANISMS-CONTROLLING AGENT AND METHOD FOR USING THE SAME” (priority 2001, published 2015)

Assays:
[1] = system: Bulrush (Scirpus juncoides Roxb.); assay: Herbicidal effect on bulrush by submerged application to main paddyfield; format: in vivo; parameters: key: 0 means “no effect”; 10 means “complete withering”; settings: 10.0 g ai/10a; four weeks after the treatment
[2] = system: Small Brown Planthopper (Laodelphax striatellus); assay: Control of small brown planthopper on paddyfield rice by nursery box application, number of parasitic insects; format: in vivo; settings: 0.5 g ai/Box, single agent
[3] = system: Resistant Strain of Two-Spotted Spider Mite; settings: 100 ppm, single agent, 2 days after spraying
Rice Blast [4] = format: in vivo; settings: 10.0 g ai/10a; submerged application
[5] = system: Smaller Tea Tortrix (Adoxophyes orana fosciota); assay: Insecticidal test on smaller tea tortrix, tea leaf dipping; format: in vivo; settings: Adoxophyes orana, foliar, single agent 0.1 ppm, 4th instar larvae, 25° C.
[6] = system: Southern Root-Knot Nematode (Meloidogyne incognita); assay: Test for the effect on southern root-knot nematode, soil blending with granular preparation; format: in vivo; settings: 300 g ai/10a, single agent, 60 days after treatment
Rice Blast [7] = format: in vivo; settings: 0.5 g ai/Box, single agent
Cutworm = assay: Test for the effect against cutworm on beet, drench, number of injured hills per 100 hills; format: in vivo; settings: 15 g ai/10a
Aphid = assay: Control of aphid on cabbage by soil treatment, number of parasitic insects; format: in vivo; settings: 5 mg ai/hill, 21 days after transplanting
rice plant = settings: 10.0 g ai/10a; four weeks after the treatment
[8] = system: Rice Water Weevil (Lissorhoptrus oryzophilus); assay: Control of rice water weevil on paddyfield rice by nursery box application, extent of injury; format: in vivo; settings: 0.5 g ai/Box, single agent
[9] = system: Rice Leafroller (Cnaphalocrosis medinalis); assay: Control of rice leafroller on paddyfield rice by nursery box application, number of injured leaves; format: in vivo; settings: 0.5 g ai/Box, single agent
[10] = system: Diamondback Moth (Plutella xyloxtella); assay: Control of diamondback moth on cabbage by soil treatment, number of parasitic insects; format: in vivo; settings: 5 mg ai/hill, 21 days after transplanting
[11] = system: Rice Leafroller (Cnaphalocrocis medinalis); assay: Control of rice leafroller by submerged application to main paddyfield, percentage of injured leaves; format: in vivo; settings: 10.0 g ai/10a
[12] = system: Brown Rice Planthopper (Nilaparvata lugens); assay: Insecticidal test on brown rice planthopper, rice seedling dipping; format: in vivo; settings: 100 ppm, single agent
[13] = system: Green Peach Aphid (Myzus persicae); assay: Insecticidal test on green peach aphid, spraying of Chinese cabbage, control value; format: in vivo; settings: Myzus persicae, 144 h, single agent, 6 days after spraying, read-out: Control degree (%)
[14] = system: Citrus Yellow Thrips (Frankliniella occidentalis); assay: Control of citrus yellow thrips on egg plant by combined use with natural enemy pesticide, number of thrips; format: in vivo; settings: 100 ppm, spray
[15] = system: Barnyard Grass (Echinochloa crus-Galli); assay: Herbicidal effect on barnyard grass by submerged application to main paddyfield; format: in vivo; parameters: key: 0 means “no effect”; 10 means “complete withering”; settings: 10.0 g ai/10a; four weeks after the treatment
[16] = true leaf extraction season treatment

Cc1cc(C(F)(C(F)(F)F)C(F)(F)F)ccc1NC(=O)c1cccc(I)c1C(=O)NC(C)(C)C[S+](C)[O-] (stereo not drawn) [Compound 131, N^2-(1,1-dimethyl-2-methylsulfinylethyl)-3-iodo-N^1-{2-methyl-4-[1,2,2,2-tetrafluoro-1-(trifluoromethyl)ethyl]-phenyl}phthalamide]
Herbicidal effect fulrush [1]: 0 | Number of parasitic planthoppers per 30 hills After 40 days ([2]; after 40 days): 342 | Number of parasitic planthoppers per 30 hills After 60 days ([2]; after 60 days): 391 | Death rate (%) [3]: 5% | Areal rate of disease spot (%) After 60 days (Rice Blast [4]): 8.3% | pest or weed control at 0.1 ppm ([5]; 96 h, read-out: Death rate (%) After 4 days): 5% | pest or weed control at 0.1 ppm ([5]; 168 h, read-out: Death rate (%) After 7 days): 20% | Number of nematodes per 25 g of soil sample [6]: 41 | Areal rate of disease spot (%) After 60 days (Rice Blast [7]): 8.3% | Number of injured hills per 100 hills, After 60 days (Cutworm): 0 | Number of injured hills per 100 hills, After 90 days (Cutworm): 8 | Number of injured hills per 100 hills, After 120 days (Cutworm): 21 | Number of parasitic insects per 30 hills, Aphid (Aphid; plant foot treatment): 486 | Number of parasitic insects per 30 hills, Aphid (Aphid; pre-transplanting treatment): 428 | Number of parasitic insects per 30 hills, Aphid (Aphid; pricking-in hole treatment): 391 | Number of parasitic insects per 30 hills, Aphid (Aphid; soil incorporation): 432 | Number of parasitic insects per 30 hills, Aphid (Aphid; [16]): 465 | Phytotoxicity rice (rice plant): 0 | Extent of injury After 21 days [8]: 41.2 | Percentage of injured leaves (%) After 50 days [9]: 0.14% | Number of parasitic insects per 30 hills, Diamondback moth ([10]; plant foot treatment): 1 | Number of parasitic insects per 30 hills, Diamondback moth ([10]; pre-transplanting treatment): 2 | Number of parasitic insects per 30 hills, Diamondback moth ([10]; pricking-in hole treatment): 2 | Number of parasitic insects per 30 hills, Diamondback moth ([10]; soil incorporation): 1 | Number of parasitic insects per 30 hills, Diamondback moth [10, 16]: 1 | Percentage of injured leaves (%) After 50 days [11]: 0.16% | Death rate (%) After 1 days ([12]; after 1 day): 0% | Death rate (%) After 5 days ([12]; after 5 days): 0% | pest or weed control at 100 ppm [13]: 0% | Number of parasitic insects per 20 leaves, After 60 days [14]: 23 | Number of parasitic insects per 20 leaves, After 90 days [14]: 30 | Number of parasitic insects per 20 leaves, After 120 days [14]: 54 | Herbicidal effect barnyard grass [15]: 0

Like-named read-outs stand apart in the source and are kept apart here.
